The results in this text go back to PubChem BioAssay AID1346428 (National Center for Advancing Translational Sciences (NCATS), 2018).

The campaign covered roughly 48,000 compounds. About 1,200 (2.5%) were called active. Another 2% or so got no clear call; they are omitted.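 How the source made its calls: active means activation of at least 60% and not above a set upper limit (about 1 call in 100 departs from these limits); inconclusive means activation of 40% to 60%, or above that upper limit; inactive means activation under 40%.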 The list shows a part of the results.

Chain of UniProt O75388 (O75388 whole entry, looked up, the tested form may be a part): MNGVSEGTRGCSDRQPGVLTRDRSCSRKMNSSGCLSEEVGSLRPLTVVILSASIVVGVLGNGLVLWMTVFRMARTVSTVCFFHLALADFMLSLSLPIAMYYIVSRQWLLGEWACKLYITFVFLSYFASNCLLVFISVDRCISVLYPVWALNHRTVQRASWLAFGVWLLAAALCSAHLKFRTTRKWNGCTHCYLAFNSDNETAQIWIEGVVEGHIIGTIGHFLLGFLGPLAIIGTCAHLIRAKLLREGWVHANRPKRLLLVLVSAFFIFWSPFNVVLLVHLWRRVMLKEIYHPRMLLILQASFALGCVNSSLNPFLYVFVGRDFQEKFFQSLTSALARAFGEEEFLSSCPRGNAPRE

The assay addresses Probable G-protein coupled receptor 32 (Homo sapiens) (UniProt O75388). Put plainly: qHTS for Agonists of Human Resolvin D1 Receptor DRV1. The following applies: CHO-K1 GPR32 beta-arrestin PathHunter luminescence, 90 min; at 76.9 µM; stronger effect = higher value; zero percent set by DMSO-only wells. In a few lines:
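PathHunter enzyme-fragment complementation, CHO-K1 GPR32 stable line; 2,500 cells/well, overnight attach; cpd 90 min 37 °C 5% CO2; detection reagent 1 h RT; chemiluminescence. DMSO = EC0.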
Background: Quantitative high-throughput screening tests each substance at several concentrations.
Consider `CC1=C(c2ccc(Cl)cc2)S(=O)(=O)N=C1N1CCN(c2cccc(C)c2)C(C)C1` (stereo unspecified), for which the activation was inactive: 1.62%.

In the case of `COC(=O)CNC(c1ccccc1)c1cc(Br)ccc1NC(=O)c1cc(OC)c(OC)c(OC)c1` (stereo unspecified), the activation is inactive: -8.52%.

For the compound `Cc1ccc(N2CC(c3nnc(Cc4ccc(F)cc4Cl)o3)CC2=O)cc1` (stereo unspecified), the activation was inactive: 0.894%.

Take `CCCCNC(=O)c1ccc(-c2nc(CS(=O)(=O)c3ccc(C)cc3)c(C)o2)cc1`: the activation was active: 69.4%.

As to `CCOC(=O)c1ccc(OCC2c3cc(OC)c(OC)cc3CCN2C(=O)Cc2ccc(OC)c(OC)c2)cc1` (stereo unspecified), the activation is inactive: 11.2%.

Regarding `COc1ccc2c(c1)c(N1CCCC1=O)c(C(=O)Nc1ccc(Cl)cc1C)n2C`, the activation is inactive: 3.32%.

On to `CCN1Cc2cccc(C(=O)Nc3ccc(F)cc3)c2C1=O`, for which the activation was inactive: -1.53%.

For the compound `Cc1ccc(-c2csc(=Nc3ccccc3)n2CCCO)cc1`, the activation was active: 86%.

`CCOC(=O)c1ccc(NC(=O)Cn2nnc(-c3ccc(C(F)(F)F)cc3)n2)cc1`: the activation is inactive: -9.7%.

`CNC(=O)c1ccc(NC(=O)c2nsc3ccccc23)cc1`: the activation is inactive: -6.81%.

Consider `COc1ccc(CCNC(=O)CCCn2c(=O)c3ccccc3n(CC(=O)Nc3c(C)cc(C)cc3C)c2=O)cc1OC`, for which the activation is inactive: 13.6%.

For `C[C@@H]1C[C@H]2[C@@H]3CCC4=CC(=O)C=C[C@]4(C)[C@@]3(F)[C@@H](O)C[C@]2(C)[C@@]1(O)C(=O)COC(=O)c1ccncc1`, the activation is inactive: 10.6%.

In the case of `COC(=O)c1c(NC(=O)c2ccc(S(=O)(=O)N3CCCCC3)cc2)sc2c1CCN(C)C2`, the activation was inactive: -29.7%.

Consider `Cc1ccc(-n2c(SCc3nc(-c4ccccc4C)no3)nnc2-c2ccncc2)cc1C`, for which the activation was inactive: -8.52%.

Regarding `COC(=O)c1ccc(OC)c(Cn2c(=O)n(-c3cccc(Cl)c3)c(=O)c3c2c2cc(C)ccc2n3C)c1`, the activation was inactive: -3.66%.

For `CCOC(=O)c1c(-c2ccc(C)cc2)csc1NC(=O)c1ccc(C(C)(C)C)cc1`, the activation is inactive: -6.65%.

With `CCc1ccc(NC(=O)CCS(=O)(=O)c2ccc3c(c2)oc(=O)n3C)cc1`, the activation was inactive: 28.9%.

Take `CCC(Cc1ccccc1)NC(=O)c1csc2c1CCCCC2` (stereo unspecified): the activation was inactive: 1.5%.

Turning to `COc1cccc(Cn2c(SCc3ccc(C(=O)N4CCC(C)CC4)cc3)nc3ccncc32)c1`, the activation was inactive: -41%.

Consider `CC1(C)O[C@@H]2C[C@H]3[C@@H]4C[C@H](F)C5=CC(=O)CC[C@]5(C)[C@H]4[C@@H](O)C[C@]3(C)[C@]2(C(=O)CO)O1`, for which the activation was inactive: -49.9%.

As to `COc1cc(NC(=O)CCCSc2nc(-c3ccco3)cc(C(F)(F)F)n2)cc(OC)c1OC`, the activation was inactive: 11.6%.

With `C[C@H]1C[C@H]2[C@@H]3CCC4=CC(=O)C=C[C@]4(C)[C@H]3C(=O)C[C@]2(C)[C@@]1(O)C(=O)CO`, the activation was inactive: -12.4%.

On to `COc1ccc2c(C)cc(SCC(=O)Nc3nsc(-c4ccc(C(C)(C)C)cc4)n3)nc2c1`, for which the activation is inactive: 12.6%.

With `CC(C)(C)OC(=O)N1CCC(c2c(C(=O)NCCN3CCOCC3)cnn2-c2ccccc2)CC1`, the activation is inactive: -0.589%.

Regarding `COc1ccc2oc(-c3ccc(C)c(NC(=O)c4ccc(N5CCCCC5)c([N+](=O)[O-])c4)c3)nc2c1`, the activation was inactive: -9.83%.

`CCOC(=O)c1c(Nc2ccccc2)nnc(-c2ccccc2)c1-c1ccccc1`: the activation was inactive: -15.6%.

As for `O=C(Cn1c(=O)oc2ccccc21)NCc1ccc(Cl)cc1`, the activation was inactive: -12.3%.

In the case of `CCN(c1ccccc1)S(=O)(=O)c1cc(C(=O)Nc2ccc(Br)cc2)ccc1F`, the activation was inactive: 1.14%.

As for `COc1ccc(CNC(=O)CN2CCSc3ccccc32)c(OC)c1`, the activation was inactive: 15.4%.

As to `CCN(CC)C(=O)Cn1c(SCC(=O)Nc2ccc(C)c(C)c2)nc2ccccc21`, the activation was inactive: -1.3%.

`COc1ccccc1NC(=O)C1=C(C)Nc2ncnn2C1c1ccc[nH]1` (stereo unspecified): the activation was inactive: 34.8%.

As for `CN1CCN(c2ncc3c(n2)CCN(Cc2ccccc2Cl)C3)CC1`, the activation was inactive: -26.2%.

For the compound `Cc1ccc(-n2ncc3c(NCCc4ccccc4)ncnc32)cc1`, the activation is active: 93.5%.

Take `CCOc1ccc(S(=O)(=O)n2nc(C)c(S(=O)(=O)N3CCCCCC3)c2C)cc1`: the activation is inactive: -4.57%.

As to `Cc1cc2oc(C(=O)N(Cc3ccccc3)C3CCS(=O)(=O)C3)cc(=O)c2cc1C` (stereo unspecified), the activation is inactive: -18.4%.

As to `CCc1ccc(-n2c(=O)c3cccnc3n2CC(=O)N(CC)c2cccc(C)c2)cc1`, the activation is inactive: -40.3%.

In the case of `COc1cccc(C(=O)Nc2ccc3c(c2)CCCN3C(=O)c2cccs2)c1OC`, the activation is inactive: -12.7%.

Consider `Cc1ccc(NC(=O)CN2C(=O)C(c3ccccc3)=NC2(C)C)cc1C`, for which the activation was inactive: -30.2%.

For `Cc1ccccc1C(=O)Nc1ccccc1C(=O)OCc1cc(=O)n2nc(C3CC3)sc2n1`, the activation was inactive: 8.54%.

In the case of `Cc1cc(-c2nc3ncccc3o2)ccc1NC(=O)COc1ccc(C(C)(C)C)cc1`, the activation is inactive: 19.6%.

Turning to `CCc1ccc(NC(=O)CSc2nnc(-c3nonc3NC(C)=O)n2-c2ccccc2)cc1`, the activation is inactive: -16.9%.

On to `Cc1c2cnn(-c3ccccc3)c(=O)c2c(C)n1CC(=O)NCc1ccc(Cl)cc1`, for which the activation was inactive: 24.7%.

Regarding `Cc1[nH]c(C)c(Cl)c(=O)c1Cl`, the activation was inactive: 0.369%.

Regarding `CCOc1ccc(Nc2c(S(=O)(=O)c3ccc(C)cc3)cnc3ccccc23)cc1`, the activation is inactive: -41.6%.

For the compound `CCOC(=O)c1ccc(N2C(=O)c3[nH]nc(-c4ccc(OC)cc4)c3C2c2ccc(C)cc2)cc1` (stereo unspecified), the activation was inactive: 9.46%.

Regarding `CCOCCCNC(=O)c1c(NC(=O)c2cc(=O)c3cc(C)c(C)cc3o2)sc2c1CCC2`, the activation is inactive: -1.85%.

As to `CCOc1ccc(N2CC(c3nc4ccccc4n3CCC3CCCCC3)CC2=O)cc1` (stereo unspecified), the activation was inactive: 4.69%.

Consider `COc1ccc(CN2C(=O)N(c3ccc(F)cc3)C(=O)C2CC(=O)Nc2ccccc2)cc1` (stereo unspecified), for which the activation was inactive: -3.4%.

`CCn1c(=O)cc(OCC(=O)NCc2ccc(F)cc2Cl)c2ccccc21`: the activation was inactive: 6.73%.

Turning to `CCCNC(=O)C1CCN(c2cc(C)nc3c(-c4ccc(OC)c(OC)c4)c(C)nn23)CC1`, the activation is inactive: 13.7%.

For the compound `O=C1CN(C(=O)c2ccccc2)C(c2ccc(F)cc2)c2cc(Br)ccc2N1` (stereo unspecified), the activation was inactive: -12.9%.
